# Experimental data as given in ChEMBL document CHEMBL4888484, “Replenishing the malaria drug discovery pipeline: Screening and hit evaluation of the MMV Hit Generation Library 1 (HGL1) against asexual blood stage Plasmodium falciparum ,using a nano luciferase reporter read-out” (2022).
# Screen size: about 150,000 compounds; about 540 (0.36%) showed an effect of 50% or more. This is one part of the list.
# System: Plasmodium falciparum
# Assay: Primary screen in NF54 nanoGlo assay, in single point, at 2uM, 72h; a lower Z score goes with more inhibition
# Type: functional, Erythrocyte
# Settings: timepoint 72 hour
Compound,% Inhibition [%],Z score
CCCOc1ccc([C@@H]2c3c(-c4ccc(C)cc4)nn(C)c3C(=O)N2Cc2ccccc2)cc1,-5,0.65
C[C@](O)(CCc1ccccc1)C(=O)NCc1ncccc1O,8,-1.01
CC(C)Cc1cnc(NC(=O)N2CCCC2)s1,-12,1.21
NC(=O)c1ccccc1NC(=O)CCn1nc2ccccn2c1=O,2,-0.37
CN(Cc1ccsc1)C(=O)Nc1ccc2oc(C3CC3)nc2c1,3,-0.53
O=C(Cc1cccc(F)c1F)N1CC[C@@]2(CCCN(CC3CC3)C2=O)C1,3,-0.38
CC(=O)O[C@H]1C2CCC1C([N+]1(C)CCCCC1)CC2 (stereo partly drawn),-5,0.64
c1cc2c(cc1-c1noc(-c3cc4n(n3)CCCC4)n1)CCC2,-12,1.14
c1nc2cc(-c3noc(-c4cn(CCC5CCCCC5)nn4)n3)ccc2[nH]1,-15,1.95
Cc1cnn([C@@H](C)CNC(=O)c2c[nH]nc2-n2cnnn2)c1,-4,0.61
O=C(CN1CCN(Cc2ccccc2)CC1)NCc1ccco1,0,0.04
COc1ccc(S(=O)(=O)N2CCC(n3c(C)nc4cc(C(=O)N(C)C)ccc43)CC2)cc1,5,-0.87
CC1CN(C(=O)c2ccccc2)OC(c2ccc(Cl)cc2Cl)O1 (stereo not drawn),-3,0.48
CCNc1nc(C)c(C(=O)N[C@H]2CC(C)(C)Oc3cc(OC)ccc32)s1,-8,1.05
C[C@H]1CCCCN1CCNC(=O)c1ccc(-c2ccnc(N3CCCC3)n2)cc1,-13,1.69
C#CCCCCNC(=O)C(C)N1C(C)CCC1C (stereo not drawn),-7,1.02
S=c1sc2c(N3CCc4ccccc43)ncnc2n1-c1ccccc1,-3,0.62
O=C(CN1CN(c2ccccc2)C2(CCN(S(=O)(=O)c3ccccc3)CC2)C1=O)NCCc1ccccc1,-3,0.46
O=C(CCc1cc(O)no1)N[C@H]1CCOC[C@@H]1O,6,-0.73
CC1CCCN(C2(N3CCCC(C)C3)C(=O)Nc3ccc(F)cc32)C1 (stereo not drawn),32,-1.76
CCCCOCC(=O)Nc1c(N(C)C)cccc1S(=O)(=O)N(C)C,7,-0.85
COc1cc(C)c(-c2cncc([C@H]3OCC[C@@H]3C(=O)O)c2)c(C)c1,-5,0.64
Cc1nc(CN(C(=O)c2ncc(C(N)=O)cc2Cl)c2ccc(F)cc2)cs1,-12,1.6
O=C(c1cccc(S(=O)(=O)NC2CC2)c1)N1CC2(CCOC2)C1,1,-0.25
O=C(CC[C@H]1CCCN(Cc2c[nH]cn2)C1)N1CCN(c2ccccn2)CC1,-1,0.18
O=C(NCCn1cc(-c2ccncc2)cn1)c1ccncc1,19,-2.44
CO[C@@]1(C(=O)NC23CCC(CC2)CC3)CCOC1,8,-0.74

Compound,% Inhibition [%],Z score
COc1ccccc1CCNC(=O)c1ccn2cnnc2c1,7,-0.73
Cc1ccc2c(c1)-c1c(ssc1=S)C(C)(C)N2C(=O)c1cccnc1,8,-1.49
O=C1CCCCCN1CCC(=O)N1CC[C@H](Cc2cccc(CO)c2)C1,-15,1.95
CCCn1ncc(C(=O)N[C@H]2CCN(C)C[C@H]2Cc2ccccc2)c1C,-17,1.61
COCC1CCC(Nc2cc(N3CCOCC3)ccc2C)CC1 (stereo not drawn),-8,1.25
CC1CCN(C(=O)N2CCN(S(=O)(=O)c3ccccc3)CC2)CC1,-4,0.71
Cc1ncc(CN2CCC(n3nccc3NC(=O)C3CCCC3)CC2)s1,-5,0.64
CC(C)(CNS(=O)(=O)c1ccccc1)CNS(=O)(=O)c1ccccc1,-3,0.42
c1ccc2c(c1)c(NCc1ccc3c(c1)OCO3)nn1cnnc21,-2,0.34
CCc1nc2n(n1)CCC[C@@H]2NC(=O)c1sc2cccc(F)c2c1C,2,-0.42
C#CCCC1(CCC(=O)N2CC(=O)N(CC3CC3)C2)N=N1,-14,1.73
CC(C)Cc1cc(CNCc2cnc(N3CCOCC3)nc2)on1,-17,3.23
O=C1c2cc(Cl)ccc2N[C@]2(C(=O)Nc3ccccc32)N1Cc1ccc(Cl)cc1,-37,4.29
O=S(=O)(c1ccccc1)N1CCN(S(=O)(=O)c2ccc3ccccc3c2)CC1,-3,0.34
CC[C@@H](CC#N)OC(=O)c1ccc(F)cc1,-11,1.51
CCCn1nnnc1NC(=O)Cc1ccccc1,-10,1.27
Cc1ccn([C@@H](C)c2nnc(Nc3ccn(Cc4c(Cl)cccc4Cl)n3)s2)n1,33,-0.29
N#CCC(=O)N(Cc1cccc(Br)c1)C1CCOCC1,1,-0.09
Cn1c(-c2cc(-c3ccc(Br)cc3)nc3ccccc23)nc2ccccc21,-11,1.89
COc1ccc(C)cc1N1C(=O)N[C@@H](CO)C1=O,-3,0.44
Cn1nc(-c2cc(F)cc(C(F)(F)F)c2)nc1N1CCCCC1,-6,0.77
CC(C)c1ccccc1OCC(O)CN1C(=O)NC(C)(CCc2ccc(OC(F)F)cc2)C1=O (stereo not drawn),-7,1.35
Cc1cc(CC(=O)N2CCC3(CCC3)C2)n[nH]1,-7,0.88
CCn1cc(S(=O)(=O)N[C@@H](C)c2cccc(-n3cccn3)c2)cn1,-7,1.31
Cc1nc2cccc(NC(=O)COc3ccc(Cl)cc3Cl)c2o1,-14,1.84
Nc1c(-c2cccnc2)nc2ccccn12,-14,2.09
CCC(CC)(NC(=O)COc1ccc(C)cc1C)C(F)(F)F,-9,1.39
